58 sequences from the supplement of paper PMC11417369 can be followed below.

This is one part of the list.

The test system of this assay is PfAP2-HC AP2 domain (GST-tagged). As to the kind of experiment: gcPBM binding intensity (ln(normalized median fluorescence intensity)); higher = stronger DNA binding. A digest of the protocol:
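The highest Masliner-normalised natural-log median intensity across replicate spots of either probe orientation is reported as binding intensity. GST-tagged P. falciparum DNA-binding domains expressed in E. coli were applied for 1 h to an Agilent 4 × 180k array of primer-extended double-stranded 36-bp intergenic genomic probes plus negative controls, and bound protein was detected with Alexa488 anti-GST antibody and scanned at 488 nm.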
“TTGTTTCTCTTTAAAAGTACAAAAATGGTTACATAT [XGTACX_site3109]”: the “gcPBM binding intensity (ln)” value turned out to be 9.54.
Take “TAGATTTTTTAATGTTGTACAAATATACGATATATA [XGTACX_site3258]”: the “gcPBM binding intensity (ln)” value worked out at 9.39.
As to “AAATATATATAAAAGTGTACATTTGTTATAATCAGT [XGTACX_site4822]”, the “gcPBM binding intensity (ln)” value worked out at 9.91.
For “TTATATATTTCTACTCATATTACAATGTGAGAAATA [CACACA_negctrl_site873]”, the “gcPBM binding intensity (ln)” value is 9.29.
With CTCAACAAAATATGAGTGCATTGTTATTACATATAT, the “gcPBM binding intensity (ln)” value worked out at 9.84.
On to “AACATTAAAAGGGATACACACATATAAATAAATAAT [CACACA_site489]”, for which the “gcPBM binding intensity (ln)” value was 10.
Take “TAGATATATAATTTTTGTACGTAGTCGAATCTCAGA [XGTACX_site765]”: the “gcPBM binding intensity (ln)” value is 9.51.
For the sequence “CCAACTAAAAAGGAATGTACATAGTTATGGTTGGAA [XGTACX_site8762]”, the “gcPBM binding intensity (ln)” value was 9.86.
The same measure for “ACTTTAAACAAAAAAAGTACTCTTTAATGAATATAT [XGTACX_site7176]”: 9.42; for “TATATATATATATATATATATATATATATATGTTGT [TGCATGCA_negctrl_site24]”: 9.49.
With “CAATATTTTATTTAAGCATGCTCTAGGGTGTAAAAG [TGCATGCA_site1001]”, the “gcPBM binding intensity (ln)” value came out at 9.53.
The same measure for “CAATTTCTCTTAATTTGTACATATATGTTATACAAA [XGTACX_site3231]”: 9.56; for “AAAAGAAAAGAGAGGAGTACAAAATATAATTATCTA [XGTACX_site5172]”: 9.74.
The same measure for TTATTTATTTATATAGTGCAATAAACACATAAATAG: 9.34; for “TGTATATATTAATGTACACACATGCGTATGTTCGTT [CACACA_site3583]”: 9.96; for “AAAAAAAAAAAAAGAACACACACAGTGCACATTCGG [CACACA_site8163]”: 9.97.
The same measure for “CATATTGGTATGCTCATGCACTTTTATTTTGTTATT [GTGCAC_site9553]”: 10.1.
For the sequence “AATTAGATACTAACAAGTACATATATATATATATAT [XGTACX_site2252]”, the “gcPBM binding intensity (ln)” value came to 10.2.
“TTTCCCTAATGAAAGTGTACCTGTGAGAAAAAAAAG [XGTACX_site194]”: the “gcPBM binding intensity (ln)” value was found to be 9.46.
For the sequence “TTGTAATTATTAAACACACACAAAATATCTAGAATA [CACACA_site7231]”, the “gcPBM binding intensity (ln)” value amounted to 10.
For “ATTTTTTTTTGTGTATATAAATAAATAAATATATAT [GTGCAC_negctrl_site603]”, the “gcPBM binding intensity (ln)” value is 9.42.
“ATTTAGATTAACACTTGTACATAATACATACAAATA [XGTACX_site4147]”: the “gcPBM binding intensity (ln)” value was 9.5.
The same measure for “TTTTTTATTTTTTTATTGTTTTATTGTTTCATTGTT [XGTACX_negctrl_site128]”: 9.7; for “CCGTAGTTTTAAAATAGTACTTTTATGGTTAATAAA [XGTACX_site3162]”: 9.38.
Consider “TTACTACTATATTATACACACATATATTTATTTATA [CACACA_site7274]”, for which the “gcPBM binding intensity (ln)” value turned out to be 9.91.
With “TATAAAAAGCAAAACAAAAAAACAAATTGAAAAATT [TGCATGCA_negctrl_site158]”, the “gcPBM binding intensity (ln)” value came to 9.62.
For “TATAAATAATAAAGATGTACTTTTTATGATTCCTAC [XGTACX_site7003]”, the “gcPBM binding intensity (ln)” value is 9.66.
With “CAATTTATTTTTATTACACACTATCCAAATAATTTC [CACACA_site2956]”, the “gcPBM binding intensity (ln)” value was 9.66.
In the case of “CCATAAAATCATAAGCGTACTTAATATATTTTACTT [XGTACX_site559]”, the “gcPBM binding intensity (ln)” value came to 9.72.
Consider “TTAAACAATTTAGACATACACACAAAAATAATATTA [CACACA_site385]”, for which the “gcPBM binding intensity (ln)” value turned out to be 9.87.
To “AACATACGACAATACGCACACATATATGTACATATT [CACACA_site1917]” belongs 10; to “TATATAATAATTTAGAGTACTGATAAAATATTCCAT [XGTACX_site6200]”, 9.31.
Take “AGCATACATATTTTTTGTACATATATATATATATAT [XGTACX_site8536]”: the “gcPBM binding intensity (ln)” value was 9.88.
To “TAATTTTTCCTTTTTGCACACATTAACGTCGACGAA [CACACA_site4025]” belongs 9.79.
As to CCCTGCCTCTCTTTGGTGCGTTGTAACCCTCGAGGA, the “gcPBM binding intensity (ln)” value worked out at 9.49.
The same measure for “AAAAAAAAAAAAAGCACACACACATATGTGTATATA [CACACA_site8225]”: 10.3.
On to “TGTCTGTGCGGGTGTACACATTTCATATTACCCAAT [CACACA_site5593]”, for which the “gcPBM binding intensity (ln)” value worked out at 9.8.
“TAAATTGTATATGAGACTATACTATAAAAGTATGAA [XGTACX_negctrl_site22]”: the “gcPBM binding intensity (ln)” value came out at 9.59.
To “AACCTTACACAAGGGGTGCAATATTATTTCGATAAA [GTGCAC_site9600]” belongs 9.47; to TGCTCCTATTATATAGTGCATTTATTTTAATAAACG, 9.38.
To “TAATTTATAAAAAATTGTACATTAAACATATATATA [XGTACX_site5164]” belongs 9.45; to “TCTTTTCGTTCATGCTGTACTTAATTGCTCTAATTT [XGTACX_site4816]”, 9.82.
Take “ATTTAAATAATATGTACACACATTTAAAAAATTATA [CACACA_site2816]”: the “gcPBM binding intensity (ln)” value was determined as 9.65.
As to “TAAGAAAAAGGCACACGTACATAATTCAAAATAAAT [XGTACX_site982]”, the “gcPBM binding intensity (ln)” value is 10.2.
For the sequence “CCAATGAGGATATATACACACATACATTAAAAAAAT [CACACA_site5090]”, the “gcPBM binding intensity (ln)” value worked out at 9.86.
The same measure for “ATATATATGTATGTATGTACTTATTTATTTATTTAT [XGTACX_site7740]”: 9.77.
Take “TTTTTTTTCACACATTGTACTTTTTTATAAAATATA [XGTACX_site4351]”: the “gcPBM binding intensity (ln)” value came out at 9.74.
Regarding “AATATATAGGTATTTACACACAATGTGAGATCTATA [CACACA_site3407]”, the “gcPBM binding intensity (ln)” value is 9.89.
In the case of “ATTTATGAAAAGTAAAGTACACACAGGAAAAAAAAA [XGTACX_site3564]”, the “gcPBM binding intensity (ln)” value was 9.87.
To GTCAACTTGTGATAAGTGCATATATATAATAAAATG belongs 9.62; to “CGAAATAAATCTTATGCACACAAATAATTAATTAAA [CACACA_site8491]”, 9.72; to “AAAAAAATATAATATTTGAATAAATATAATAATATG [XGTACX_negctrl_site477]”, 9.58.
The same measure for “AATTATCAAAGTCTATACATACATACATACATACAT [GTGCAC_negctrl_site243]”: 9.82; for “TAATTATAATAAAAAGGTACAGAAAAGTTATACTCA [XGTACX_site6111]”: 9.61.
Turning to “GTTATAACTCAAATATGTACATATTATAAAACATAT [XGTACX_site6693]”, the “gcPBM binding intensity (ln)” value came out at 9.66.
For the sequence “TATAAAAATAAGCACACACACAAATATATATTTATT [CACACA_site922]”, the “gcPBM binding intensity (ln)” value amounted to 10.3.
For “TTATAGAACTATATTGCACACATAATATATATATAT [CACACA_site9042]”, the “gcPBM binding intensity (ln)” value was found to be 9.85.
Turning to “AAAAAAAAAAAAAAAGGTACACAAATACGTCCTGCA [XGTACX_site3354]”, the “gcPBM binding intensity (ln)” value was 9.64.
